In patent US20260232828A1, “LIGAND-CYTOTOXICITY DRUG CONJUGATES AND PHARMACEUTICAL USES THEREOF” (HANSOH BIO LLC, priority 2023, published 2026):
Where two headings read alike, the source gives them in different places.

Legend:
[1] = set-up: species or system Balb/c mice; conditions: mouse, in vivo, iv, 5 mg/kg
Protocol: Human CDH17 His Tag protein (Sino biological, catalog number 11360-H08H) was coated onto the MSD bare standard plates (Meso Scale Discovery, catalog number L15XA-3) at a concentration of 4 μg/mL overnight in 4° C. The excess unbound proteins were washed off by PBST buffer and were blocked with 3% BSA in PBS buffer for 1 h at room temperature with a shaking speed of 700 rpm. After washing with PBST for 3 times, standard samples, QC samples, SC samples, and mouse serum samples were added to plates for 1 h incubation at room temperature with a shaking speed of 700 rpm. The final concentrations of the standard samples were ranging from 0.02 ng/mL to 1000 ng/mL. Quality control (QC) samples and sample control (SC) samples were diluted into 4 different concentrations (0.06 ng/ml, 0.244 ng/ml, 3.906 ng/mL, and 250 ng/mL). Mouse serum samples were also diluted to the detection range. The plates were then washed with PBST for 3 times and incubated with sulfo-tag conjugated anti-Fc antibody for 1 h at room temperature with shaking. Finally, 150 μL MSD GOLD Read Buffer B was added to each well and the plate was read by MESO […] (Meso Scale Discovery). The raw data was analyzed on MSD discovery workbench software and the AUC data of the total antibody from mouse serum was calculated by pK solver. The total antibody here is referring to the antibody from ADC, we test both total antibody and ADCs when doing the assay. All the ADC molecules have good pharmacokinetic properties. […] Similar administration, detection, and analysis methods were applied to ADC-21, ADC-24 and ADC-34. Balb/c mice (3 mice per group) were dosed at a concentration of 5 mg/kg by i.v. injection. Serum samples were collected at 13 time points: pre-bleed, 1 h, 4 h, 24 h, 2 day, 3 day, 5 day, 7 day, 9 day, 12 day, 14 day, 17 day and 21 day. MSD bare standard plates were coated at a concentration of 2 μg/mL for both total antibody and ADC PK detection. Quality control (QC) samples and sample control (SC) samples were diluted into 3 different concentrations (0.22 ng/ml, 3.52 ng/ml, and 225 ng/mL). […]

[2] = tested on: AsPC1 cells (pancreatic cancer) xenograft; assay: Efficacy in human pancreatic cancer cell xenograft mouse model; type: in vivo, female BALB/c nude mice; conditions: AsPC1 tumor-bearing mice, 6 mg/kg Q4D × 3 intravenously
Protocol: AsPC1 cells (pancreatic cancer) were engrafted subcutaneously into female BALB/c nude mice. When the tumor volume reached approximately 150-200 mm^3, the engrafted mice were randomized into seven groups (5 mice per group). […] The mice were treated with ADCs (6 mg/kg) intravenously Q4D×3. […] The anti-CDH17 antibodies conjugated with compound C also have excellent tumor inhibition (Table 15 and FIG. 11).

[3] = tested on: GP2d cells (colorectal cancer) xenograft; assay: Efficacy in human colorectal cancer cell xenograft mouse model; type: in vivo, female BALB/c nude mice; conditions: GP2d tumor-bearing mice, 6 mg/kg Q4D × 3 intravenously
Protocol: GP2d cells (colorectal cancer) were engrafted subcutaneously into female BALB/c nude mice. When the tumor volume reached approximately 100-150 mm^3, the engrafted mice were randomized into seven groups (5 mice per group). […] The mice were treated with ADCs (6 mg/kg) intravenously Q4D×3. In terms of the in vivo efficacy, compared to PBS in the control group, all the ADC molecules have effects in inhibiting the increase of tumors in volume. […] The tumor volumes in ADC-11 group increased after around 30 days of 1st treatment. […] The anti-CDH17 antibodies conjugated with compound C also have an excellent tumor inhibition effect (Table 18, FIG. 12). ADCs conjugated to compound C with different DAR values have been compared in GP2d CDX model. Tumor inhibition has been observed in all the treatment groups.

[4] = set-up: species or system Balb/c mice; conditions: in vivo, iv, 5 mg/kg
Protocol: Human CDH17 His Tag protein (Sino biological, catalog number 11360-H08H) was coated onto the MSD bare standard plates (Meso Scale Discovery, catalog number L15XA-3) at a concentration of 8 μg/mL overnight in 4° C. The excess unbound proteins were washed off by PBST buffer and were blocked with 3% BSA in PBS buffer for 1 h at room temperature with a shaking speed of 700 rpm. After washing with PBST for 3 times, standard samples, QC samples, SC samples, and mouse serum samples were added to plates for 1 h incubation at room temperature with a shaking speed of 700 rpm. The final concentrations of the standard samples were ranging from 0.02 ng/mL to 1000 ng/mL. Quality control (QC) samples and sample control (SC) samples were diluted into 4 different concentrations (0.06 ng/ml, 0.244 ng/ml, 3.906 ng/mL, and 250 ng/mL). Mouse serum samples were also diluted to the detection range. The plates were then washed with PBST for 3 times and incubated with sulfo-tag conjugated anti-compound D antibody for 1 h at room temperature with shaking. Finally, 150 μL MSD GOLD Read Buffer B was added to each well and the plate was read by MESO […] (Meso Scale Discovery). The raw data was analyzed on MSD discovery workbench software and the AUC data of the ADC from mouse serum was calculated by pK solver. The total antibody here is referring to the antibody from ADC, we test both total antibody and ADCs when doing the assay. All the ADC molecules have good pharmacokinetic properties. […] Similar administration, detection, and analysis methods were applied to ADC-21, ADC-24 and ADC-34. Balb/c mice (3 mice per group) were dosed at a concentration of 5 mg/kg by i.v. injection. Serum samples were collected at 13 time points: pre-bleed, 1 h, 4 h, 24 h, 2 day, 3 day, 5 day, 7 day, 9 day, 12 day, 14 day, 17 day and 21 day. MSD bare standard plates were coated at a concentration of 2 μg/mL for both total antibody and ADC PK detection. Quality control (QC) samples and sample control (SC) samples were diluted into 3 different concentrations (0.22 ng/ml, 3.52 ng/ml, and 225 ng/mL). Sulfo-tag conjugated anti-Fc antibody and anti-payload antibody were used to detect the total antibodies and ADCs respectively.

SW480 = assay: In vitro cytotoxicity of ADCs, SW480 (Cell Titer Glo); type: cell-based; conditions: Table 10; Celltiter Glo (7 days); CDH17 negative line; NA: IC50 not conclusive (no/low toxicity)
Protocol: The ADC immunoconjugates, which had different antibodies targeting CDH17 with different internalization, were analyzed for this Example. CDH17-mediated cell toxicities by these conjugates were tested in cell culture to define the potency of various linker-cytotoxic agent combinations. Different types of cancer cell lines were tested, including colorectal cancer cell line GP2d, NCI-1H716, SK-CO-1, SNU16, ESO26 and SW480; pancreatic cancer cell line AsPC1.
We used two methods (Cell titer glo and Cytation5) to test the cytotoxicity of immunoconjugates in the above-listed cell lines. For the Cytation5 method, cells were collected in log phase growth and distributed into 96-well plates at 5000 cells/well with propidium iodide (abeam, Cat #ab14083) at 500 ng/mL and SPY650-DNA (Cytoskeleton, Inc., Cat #CYSC501) at 1:2000 dilution. Cells were incubated overnight at 37° C. in 5% CO2. The immunoconjugates were diluted with cell culture medium containing 500 ng/mL propidium iodide and 2000-fold diluted SPY650-DNA, then added to each well. The final concentrations of the immunoconjugates were ranging from 0.003 nM to 200 nM. Cytation5 (Agilent) was used to detect the viability of the cells in each well by imaging the plates every 12 h for 96 h. For Cell titer glo method. […] After 5 or 7 days of incubation, the cell viability in each well was determined by Cell Titer Glo 2.0 Assay (Promega). […]

B1: ADC-06 (conjugate)
heavy: QITLKESGPTLVKPTQTLTLTCTFSGFSLSTSGVGVGWIRQPPGKALEWLALIYWNDDKRYRPSLKNRLTITKDTSKNQVVLTMTNMDPVDTATYYCTHYGVTAPFYNWFDPWGQGTLVTVSS[letters of human IgG1 constant region omitted]
light: DIQMTQSPSSLSASVGDRVTITCRASQSITSYLNWYQQKPGKAPKLLIYAASSLQSGVPSRFSGSGSGTDFTLTISSLQPEDFATYYCQRSYSTLTFGGGTKVEIKRTVAAPSVFIFPPSDEQLKSGTASVVCLLNNFYPREAKVQWKVDNALQSGNSQESVTEQDSKDSTYSLSSTLTLSKADYEKHKVYACEVTHQGLSSPVTKSFNRGEC
**Q.** Which results are given for B1?
**A.** Cl_obs [1]: 0.0010 (mg/kg)/(μg/ml)/h; MRT 0-t [1]: 41.7 h; Vss_obs [1]: 0.06 (mg/kg)/(μg/ml); Tumor volume (mm3) Day 28 [2]: 177.8 ± 16.1 mm3; TGI Day 28 ([2]; 6 mg/kg): 76.26%; Tumor volume (mm3) Day 49 [3]: 364.0 ± 175.0 mm3; TGI Day 49 ([3]; 6 mg/kg): 92.03%; Vss_obs ([4]; Balb/c, mouse): 0.06 (mg/kg)/(μg/ml); mouse serum sample in which the ADC could be detected [4]: 7 days; Cl_obs ([4]; mouse): 0.0011 (mg/kg)/(μg/ml)/h; MRT 0-t ([4]; mouse): 38.4 h; IC50 (SW480): > 100 nM
